Measurements published in PubChem BioAssay AID1468 (National Center for Advancing Translational Sciences (NCATS), 2008).
Screen size: about 280,000 compounds; about 1,100 (0.39%) were called active. Inconclusive results, whose numbers are uncertain, are shown with a selection of clear calls. Calls follow the shape of the dose curve; as a rule, active = well fitted inhibition curve with a large enough effect; inconclusive = small, poorly fitted or top-dose-only effect, or effect the other way; inactive = flat fitted curve, though single readings scatter. Potencies beside an inconclusive call are fits to weak or partial responses and may not hold up.

Biological target: Microtubule-associated protein tau (Homo sapiens) (UniProt P10636)
Chain of UniProt P10636 (P10636 whole entry, looked up): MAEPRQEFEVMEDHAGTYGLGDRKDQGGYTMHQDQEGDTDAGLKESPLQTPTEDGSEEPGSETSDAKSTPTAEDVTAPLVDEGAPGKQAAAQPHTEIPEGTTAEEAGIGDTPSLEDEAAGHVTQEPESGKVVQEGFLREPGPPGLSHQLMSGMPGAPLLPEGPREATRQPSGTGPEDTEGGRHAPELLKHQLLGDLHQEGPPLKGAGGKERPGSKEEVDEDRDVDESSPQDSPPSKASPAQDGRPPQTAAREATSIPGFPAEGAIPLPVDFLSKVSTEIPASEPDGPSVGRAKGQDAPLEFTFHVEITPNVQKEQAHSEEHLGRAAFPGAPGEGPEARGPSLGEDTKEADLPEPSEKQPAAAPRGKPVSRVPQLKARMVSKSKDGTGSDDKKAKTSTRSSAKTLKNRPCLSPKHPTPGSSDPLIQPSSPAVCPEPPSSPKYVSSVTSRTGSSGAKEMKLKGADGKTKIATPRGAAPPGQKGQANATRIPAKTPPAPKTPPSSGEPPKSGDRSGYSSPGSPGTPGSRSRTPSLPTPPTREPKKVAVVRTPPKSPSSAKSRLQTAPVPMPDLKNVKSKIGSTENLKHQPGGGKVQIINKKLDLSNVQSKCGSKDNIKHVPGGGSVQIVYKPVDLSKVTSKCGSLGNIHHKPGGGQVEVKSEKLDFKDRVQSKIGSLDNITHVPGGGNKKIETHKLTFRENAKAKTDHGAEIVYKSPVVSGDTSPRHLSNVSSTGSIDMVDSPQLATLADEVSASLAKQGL
Experiment: qHTS for Inhibitors of Tau Fibril Formation, Fluorescence Polarization; also: nearly all actives have a fitted effect of over 55% in size
Settings: K18 P301L tau heparin fibrillization, Alexa594 FP, 6 h; series mostly up to 57.7 µM; activity, negative = inhibition: at the top concentration
Summary of the method: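 Read-out: fluorescence polarization of Alexa 594-labeled tau (0.24 uM), 555 nm excitation, 632 nm emission. Mixtures held 15 uM unlabeled K18 P301L, compound and 20 uM heparin, pH 7 acetate buffer, incubated 6 hr at 37 C.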
% is scaled to controls: 0 for no effect and ±100 for the full control effect; potency is read from the fitted curve at half-maximal effect; tags tell the direction and shape of the fitted curve.

Potency, inconclusive:
CCc1c(C(=O)Nc2ccc(S(=O)(=O)N3CCOCC3)cc2)csc1C 0.0251 µM [inhibitor, full curve, poor fit]
CCc1cccc(NC(=O)CC(c2ccc(OC)cc2)N2Cc3ccccc3C2=O)c1 (stereo unspecified) 20 µM [inhibitor, single point]
O=C(Nc1nc2cc(Cl)ccc2s1)C1CCCN(S(=O)(=O)c2cccc3cccnc23)C1 (stereo unspecified) 39.8 µM [inhibitor, single point]
COc1ccc(NC(=O)c2ccc(NC(=O)CCS(=O)(=O)c3cccs3)cc2)cc1Cl 39.8 µM [inhibitor, single point]
Cc1cccc(-n2ncc3c(NNC(=O)c4ccccc4Cl)ncnc32)c1 0.355 µM [inhibitor, full curve, poor fit]
CCCc1oc(C(=O)O)cc1CN1CCOCC1 3.16 µM [inhibitor, single point]
N#CC1=C(N)C2=C(N3CCCCC3)CCCC2C1(C#N)C#N (stereo unspecified) 39.8 µM [inhibitor, single point]
Cc1cccc(C)c1NC(=O)Cn1cc(C(=O)C2CC2)c2ccccc21 25.1 µM [inhibitor, single point]
COC(=O)c1cc(Nc2cc(C)c3c(O)cccc3n2)cc(C(=O)OC)c1 0.794 µM [activator, single point]
CC(C)(C)OC(=O)NC(CCCCNC=O)C(=O)O (stereo unspecified) 44.7 µM [inhibitor, single point]
CCOC(=O)c1cc(-c2ccc(C)cc2)n(CCC(=O)NCCCOC)c1C 44.7 µM [activator, single point]
CC(O)C(O)C(O)C(O)C1NCCS1 (stereo unspecified) 20 µM [inhibitor, partial curve]
COc1ccccc1NS(=O)(=O)c1cccc(C(=O)N/N=C/c2ccc3c(c2)OCCO3)c1 25.1 µM [inhibitor, partial curve]
COc1cccc(NC(=O)Cn2c(=O)n(Cc3ccc(F)cc3)c(=O)c3sc4ccccc4c32)c1 8.91 µM [inhibitor, partial curve]
Cn1c(=O)c2[nH]c(N=NNc3ccccc3F)nc2n(C)c1=O 22.4 µM [inhibitor, partial curve]
COc1ccc(CN=Cc2[nH]c3ccc(Br)c(Cl)c3c2O)cc1 20 µM [inhibitor, single point]
Cc1ccc2c(c1)C1C=CCC1C(C(=O)O)N2 (stereo unspecified) 35.5 µM [inhibitor, single point]
Cc1ccc2[nH]c3c(N4CCN(Cc5ccc6c(c5)OCO6)CC4)ncnc3c2c1 35.5 µM [inhibitor, single point]
CCCCC1(C)OC(=O)C(=Cc2c[nH]c3ccccc23)C(=O)O1 (stereo unspecified) 35.5 µM [inhibitor, single point]
Cc1ccc(CNc2oc(-c3cccs3)nc2C#N)cc1 25.1 µM [activator, partial curve, poor fit]
CNC(=S)N1N=C(c2ccc(OC)cc2)CC1c1ccc(N(C)C)cc1 (stereo unspecified) 15.8 µM [activator, partial curve, poor fit]
COc1ccc(/C=C2\SC(=O)N(CCC(=O)Nc3ccc(S(=O)(=O)Nc4nccs4)cc3)C2=O)cc1 22.4 µM [inhibitor, partial curve, poor fit]
COc1ccc(NC(=O)/C=C/c2ccc(Cl)cc2)cc1 25.1 µM [inhibitor, single point]
COCc1cc(C)nc(SCC(=O)Nc2cc3c(cc2C#N)OCO3)c1C#N 44.7 µM [inhibitor, single point]
CCc1nc(NCCN2CCOCC2)c2oc3ccccc3c2n1 44.7 µM [inhibitor, single point]
CC(=O)c1ccc(NC(=O)CN2C(=O)/C(=C/C(C)=C/c3ccccc3)SC2=S)cc1 11.2 µM [inhibitor, partial curve, poor fit]
C=CCOc1c(Br)cc(CNc2ccc(NC(=O)CCC)cc2)cc1OCC 25.1 µM [activator, partial curve, poor fit]
O=C(NC1CCCCC1)c1ccc2c(c1)N(Cc1cccc(Cl)c1)C(=O)c1ccccc1S2(=O)=O 5.01 µM [inhibitor, full curve]
O=C(NNc1c2ccccc2nc2ccccc12)C12CC3CC(CC(C3)C1)C2 0.0562 µM [activator, full curve, poor fit]
O=C(Nc1cc(-c2cccc(Cl)c2)nn1-c1ccccc1)c1ccccc1F 28.2 µM [inhibitor, single point]
Cc1ccc(/C=C/C(=O)N2CCN(c3ncccn3)CC2)o1 25.1 µM [inhibitor, single point]
O=C(C1=C[C@@H]2[C@H]3C(=O)N(c4ccccc4)C(=O)[C@H]3[C@@H](C(=O)c3ccc(Cl)cc3)N2C=C1)c1ccccc1 31.6 µM [inhibitor, single point]
CC(C)CCNc1nc(Nc2ccccc2)c2cnn(C)c2n1 12.6 µM [inhibitor, partial curve]
Cc1ccc(NC(=O)c2cc3c(s2)CCCC3)cc1S(=O)(=O)Nc1ccccc1Cl 39.8 µM [inhibitor, single point]
CCOc1ccc(CC(=O)Nc2c(C(=O)c3ccccc3)oc3ccc(Cl)cc23)cc1OCC 2.82 µM [inhibitor, full curve, poor fit]
CC1=C(C(=O)Nc2cccnc2)C(c2ccc(C)cc2)n2nc(SCc3ccccc3F)nc2N1 (stereo unspecified) 3.98 µM [inhibitor, single point]
CCC(=O)Oc1ccc(C(=O)Nc2ccc3c(c2)OCO3)cc1 39.8 µM [activator, single point]
CC(C)CNC(=O)CC(=O)N/N=C/c1ccc(Br)cc1 3.98 µM [inhibitor, single point]
CC1(OC(=O)CCc2ccccc2)C(=O)C=C2C=C(c3ccc(C#N)cc3)N(C(CO)CO)C=C2C1=O (stereo unspecified) 3.16 µM [inhibitor, full curve, poor fit]
Cc1cc(C)c(N=Cc2c(O)n(-c3nccs3)c(=O)c3ccccc23)c(C)c1 17.8 µM [inhibitor, partial curve]
C/C(=N\N=c1/scc(C)n1Cc1ccco1)c1cccc([N+](=O)[O-])c1 17.8 µM [activator, partial curve, poor fit]
Cc1ccc(NS(=O)(=O)c2ccc(NC(=O)CN(c3cc([N+](=O)[O-])ccc3C)S(C)(=O)=O)cc2)c(C)c1 17.8 µM [inhibitor, partial curve, poor fit]
Cc1cc(C)cc(NS(=O)(=O)c2ccc(NC(=S)Nc3ccccc3)cc2)c1 25.1 µM [inhibitor, single point]
CC(=O)C1=C(O)CC(C)(C)CC1=NCCc1nc2ccccc2[nH]1 3.16 µM [activator, partial curve]

Potency, active:
Cc1ccc2nc(SCc3nc(-c4ccc(Cl)cc4)no3)[nH]c2c1 17.8 µM
Fc1ccccc1CN1CCCN(C(=S)Nc2cccc(Cl)c2)C1 31.6 µM

activity, negative = inhibition, inactive:
Cc1cc(C)cc(NC(=O)CCn2cnc3ccccc3c2=O)c1 -12.9%
CC(C)c1ccc(C2NC(=O)c3c(sc4c3CCN(C)C4)N2)cc1 (stereo unspecified) -6.57%
CCc1ccc(NC(=O)c2cnn3ccccc23)cc1 0.744%
CCOC(=O)c1cnc(-n2nc(C)cc2C)nc1Nc1ccc(OC)cc1 9.07%
CC/C=C\CC[C@H](O)C1=CCCCC1=O -21.9% [at 11.6 µM]
O=C(CNC(=O)c1ccco1)OCC(=O)c1cccc2ccccc12 1.18%
Cc1cccc(C(=O)NC(=S)NNC(=O)Cc2ccccc2)c1 -2.63%
COc1ccc(N2CCN(C(=O)COc3ccc(Cl)cc3Cl)CC2)cc1 7.03%
NNC(=O)CSc1nnnn1-c1ccccc1 0.652%
CCc1nnc2c3ccccc3nc(Nc3cc(C)cc(C)c3)n12 -5.14%
COc1ccc(O[C@H]2C=C[C@@H](c3ccccc3)O[C@H]2COC(=O)CC/C(C)=N\OC[C@@H](O)[C@H]2O[C@H]3OC(C)(C)O[C@H]3[C@@H]2O)cc1 -15.1% [at 11.6 µM]
CCOC(=O)N1CCN(S(=O)(=O)c2ccc(C(=O)Nc3nnc(C4CC4)o3)cc2)CC1 -3.64%
COCCN(C(=O)c1ccco1)c1nnc(-c2ccc(F)cc2)s1 10.5%
O=C(/C=C/c1cccnc1)c1ccc(O)cc1 5.71%
CC1(c2ccc(OC(F)F)cc2)NC(=O)N(CC(=O)Nc2cccc(S(N)(=O)=O)c2)C1=O (stereo unspecified) 0.179%
CC(C)(C)C(=O)CSc1nc2ccsc2c(=O)n1Cc1ccccc1Cl -8.58%
COC(=O)C1=C(C)N(c2ccc(Cl)cc2)/C(=C/c2ccc(O)cc2)C1=O 4.1%
CCN(CC)CCCNc1nc(-c2ccccc2)nc2ccccc12 3.7%
Cc1c(C(=O)N2CCCCCC2)c(S(=O)(=O)NCc2ccccc2)c(C)n1C 3.03%
Cc1ccc(Oc2coc3cc(OC(=O)c4cccs4)ccc3c2=O)cc1 6.42%
